This is one part of the list.

The assay concerns PfHDP1 homeodomain (GST-tagged). Nature of the assay: gcPBM binding intensity (ln(normalized median fluorescence intensity)); higher = stronger DNA binding. The method in brief:
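For binding intensity, the highest Masliner-normalised natural-log median intensity across replicate spots of either probe orientation was taken. Protein bound to the array was stained with Alexa488 anti-GST antibody and scanned at 488 nm. The protein, GST-tagged P. falciparum DNA-binding domains from E. coli at about 25 μg on average, had been applied for 1 h to an Agilent 4 × 180k array of primer-extended double-stranded 36-bp intergenic genomic probes and negative controls.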
Turning to “GTAGTGGTTGAATATACACACATATATAAATAAATA [CACACA_site7282]”, the “gcPBM binding intensity (ln)” value was determined as 6.58.

Take “AAATATAAAGTGCACACACACAAAAAAAGAAAAAAA [CACACA_site6452]”: the “gcPBM binding intensity (ln)” value was found to be 8.92. Consider “GGAAAATCTTTATAATGTACATTATGATTATATAAT [XGTACX_site6256]”, for which the “gcPBM binding intensity (ln)” value was 6.72.

For the sequence TATAAATTAAAATGTGTGCACTAAATTGAAATAGAA, the “gcPBM binding intensity (ln)” value was found to be 10.6.

Regarding “ATATATATATATAATAGTACATATATTTTTATTGGT [XGTACX_site711]”, the “gcPBM binding intensity (ln)” value was 8.97. As for “TAACCTAAAATAACTACACACACATAAAAAAAAAAA [CACACA_site8807]”, the “gcPBM binding intensity (ln)” value was 6.58.

As for “ATATTTTTTACAAATTGTACATTTTTACAATTATTA [XGTACX_site7496]”, the “gcPBM binding intensity (ln)” value was found to be 6.47.

In the case of “TCACTTAATATTTAATGTACATAAGGTTCTTGTGCC [XGTACX_site1822]”, the “gcPBM binding intensity (ln)” value came to 6.52. As for “TTAAAATATGAATAATGTACAAGAAATTTTATTAAT [XGTACX_site6314]”, the “gcPBM binding intensity (ln)” value was found to be 6.48.

On to “TTAACTTAAGGAGAGTGTACAAATAATAAAATATCT [XGTACX_site4118]”, for which the “gcPBM binding intensity (ln)” value was found to be 6.57. In the case of “ATTATTACATTTTTATGTACATATCAAATTTATACA [XGTACX_site7332]”, the “gcPBM binding intensity (ln)” value stood at 6.42.

Take “AAAAAAAATTTATGGGGTACATATTATAATATTATA [XGTACX_site3395]”: the “gcPBM binding intensity (ln)” value stood at 6.6.

For “TTATATAACATTATTTGTACATATAAAATATGGATG [XGTACX_site8526]”, the “gcPBM binding intensity (ln)” value came out at 6.15. For the sequence “ATATCATGTTAAGATTGTACATATATATAATATATA [XGTACX_site7626]”, the “gcPBM binding intensity (ln)” value was found to be 6.47. In the case of “AATAAATTGGTATGTTGTACAAAGTAACCATCGATT [XGTACX_site2823]”, the “gcPBM binding intensity (ln)” value worked out at 6.68. Next, TGCAATTTAATATGAGTGCATATATTGAGAAAATAC: 9.36; “AAAGAAATTATTTGTTGTACATATGTTATTTTTTTT [XGTACX_site7570]”: 6.39. Turning to “AAGGATATAACATACACACACACACCCATATATATA [CACACA_site4142]”, the “gcPBM binding intensity (ln)” value turned out to be 7.01.

Turning to “TAAAACCTTTAAAATACATGCAGCATATATAAGTAA [TGCATGCA_site181]”, the “gcPBM binding intensity (ln)” value came to 6.27. Take “ATTCATAATTTATTATGTACATATATATAATATATT [XGTACX_site1711]”: the “gcPBM binding intensity (ln)” value worked out at 6.26. In the case of “AAATAACAAATTTTTAAAATGTATATATATATATAT [TGCATGCA_negctrl_site219]”, the “gcPBM binding intensity (ln)” value came out at 9.44. Next, “TATATATGGGTAACCTTTTTTTTTTTTTTTCGAACA [CACACA_negctrl_site1303]”: 6.02. For “AAAAAAAATTTTAATTGTACAAAAAAAAAAAATATA [XGTACX_site2259]”, the “gcPBM binding intensity (ln)” value is 6.46. With “AAATAAATTGATTCAACACACACATATGTAGGAAGT [CACACA_site9068]”, the “gcPBM binding intensity (ln)” value amounted to 6.86. Turning to “AATTTTTTTTGTCTCTGTACTTATAAAATATATATG [XGTACX_site4742]”, the “gcPBM binding intensity (ln)” value worked out at 6.43.

As for “TTTTTTTTTTTCAAGCGTACAAAAAATATATTTAAA [XGTACX_site5327]”, the “gcPBM binding intensity (ln)” value stood at 6.29. With “CACCCACACCAACACACACACATATATATATATATA [CACACA_site362]”, the “gcPBM binding intensity (ln)” value worked out at 9.27. Take “TAAATATATATATATAGTACAATATAATTATGATAT [XGTACX_site258]”: the “gcPBM binding intensity (ln)” value turned out to be 6.78. Under “CTTATTTACTATTTTTCACACATTACAGATAAACAA [CACACA_site6095]” stands 6.78; under “TAAGTTTTGTTTTTTTGTACTCATTCATACTATCAT [XGTACX_site3638]”, 6.91; under “TCATTGAAAAAAATCTGTACTGACTATATAGTTGCA [XGTACX_site1566]”, 6.14.

Consider “AAATGTACAGGACGCACACACATATTTATATTTATA [CACACA_site7689]”, for which the “gcPBM binding intensity (ln)” value is 6.7. Turning to “TATATATATATAATTGCACACATCAAGTTTGATGTT [CACACA_site1288]”, the “gcPBM binding intensity (ln)” value turned out to be 9.99. Under “TTTTTTTTTCCTTTTTTTTAAATATTAAAAATGGGA [TGCATGCA_negctrl_site494]” stands 5.8; under “TATAATATATGTATATGTACTTATGTTGAGAAACAT [XGTACX_site2117]”, 6.24; under “GTTATATAAACATATGCATGTGAAGTGTTTATTAAT [TGCATGCA_site183]”, 6.86. Consider “GAATAATATATATGTTCACACATGGTCTTTATTATA [CACACA_site5457]”, for which the “gcPBM binding intensity (ln)” value amounted to 6.66. Turning to “TACCTAATATGTTATACACACATTATGAGTACATAT [CACACA_site2466]”, the “gcPBM binding intensity (ln)” value is 6.81. Under “AAAATACACGCATACACACACACACCGACACATATA [CACACA_site4523]” stands 7.45; under “TAATATTATATTTATAGTACATATAATATATATATA [XGTACX_site2964]”, 8.23; under “TGTTGTGATATATTAAAATCGTCCCTTATAATTTTA [GTGCAC_negctrl_site595]”, 6.52. As for “TCTTGATACAAACATTTAAATAAATAAATAAAAAAA [GTGCAC_negctrl_site41]”, the “gcPBM binding intensity (ln)” value came out at 6.59. Consider “GAACACTAATAATGTTGTACACGTAATTATATATTT [XGTACX_site777]”, for which the “gcPBM binding intensity (ln)” value came to 6.53. As for “AAACACACACACAAATGTACATATATATATATATTT [XGTACX_site5090]”, the “gcPBM binding intensity (ln)” value turned out to be 6.94. As for “ATATATTTTCATTTTACACACAAATAAAGATAATTT [CACACA_site2996]”, the “gcPBM binding intensity (ln)” value was determined as 6.75. For the sequence “AAAATAAATAAAAAAAGTACATATATAATTTATAAA [XGTACX_site2411]”, the “gcPBM binding intensity (ln)” value stood at 6.66. Take “TATATATATATAAGTAGTACAATAATATATTATTTT [XGTACX_site6450]”: the “gcPBM binding intensity (ln)” value stood at 8.86. Under “TTTTACATCATATATAGTACATATATTATACATATA [XGTACX_site8590]” stands 6.58; under “TTTTCTTAATATTTCGTTTTACATAAACCTTTTAAA [CACACA_negctrl_site660]”, 6.7; under “AATATAATATTATATAGTACATATTTCTTTTATTTT [XGTACX_site22]”, 6.28. In the case of “TCCATGCATTGACACACACACAAAAAAAAATTCTTT [CACACA_site7847]”, the “gcPBM binding intensity (ln)” value was 6.6. In the case of “TTTATTTATTTATGGACACACATACAAATCTTCCAG [CACACA_site4676]”, the “gcPBM binding intensity (ln)” value was found to be 6.38. Turning to “CATACATATATACATACACACACATATAACCAATGT [CACACA_site8679]”, the “gcPBM binding intensity (ln)” value stood at 6.94.

For the sequence “TTTGTATTACGTTTGTGTACATATACAATGTGTTTT [XGTACX_site7708]”, the “gcPBM binding intensity (ln)” value is 6.38. On to “AATAATAATGCTTTAACTTTGTTGTTATTTAGAATA [CACACA_negctrl_site1144]”, for which the “gcPBM binding intensity (ln)” value came to 5.92.

With “TATAAATAAAAGTGTACACACATTAAAATCAAACGT [CACACA_site5316]”, the “gcPBM binding intensity (ln)” value is 7.19. On to “AGATTTATTCATTCATGTACTTATTTATTTTATTTT [XGTACX_site6702]”, for which the “gcPBM binding intensity (ln)” value is 6.17.

The values above are taken from the supplement of paper PMC11417369.
